The text below walks through data of the supplement of paper PMC10037445.

Values joined by “and” are separate entries in the source; they are usually repeats but may differ in a detail not shown here. Identical values can stand only once. ± gives the standard deviation of the averaged measurements. Whole data set: some 2,900 compounds, median “IRF Lucia reporter activity, fold change vs agonist alone” near 0.9, cut for the highest 2% near 2.8. The list shows a part of the results.

The subject of experiment [1] is RAW-Dual. Briefly: IRF Lucia reporter activity, fold change vs agonist alone; cytotoxicity flag (confluency mask): not cytotoxic; higher = enhanced IRF activity. An outline of the steps:
(§1)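 After 50 nL of library stock was delivered by pin tool to RAW-Dual macrophages (50,000 cells/well, DMEM, 384-well plates), a PRR agonist was added 1 h later and the plates were kept at 37 °C, 5% CO2. Twenty hours later, IRF was read from supernatant by QuantiLuc luminescence and NF-κB by QuantiBlue absorbance at 620 nm. Reporter activity is stated as fold change over agonist-alone wells. Wells with IncuCyte confluency under 70% of agonist controls in both mask sets were counted as cytotoxic.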

Experiment [2] deals with RAW-Dual. As to the kind of experiment: IRF Lucia reporter activity, fold change vs agonist alone; higher = enhanced IRF activity. The settings on record: agonist: MPLA (TLR4) […]. In outline:
as §1

The test system of experiment [3] is RAW-Dual. Briefly: IRF Lucia reporter activity, fold change vs agonist alone; cytotoxicity flag (confluency mask): cytotoxic (confluency <70% of control); higher = enhanced IRF activity. In outline:
as §1

The mark [4] stands for this setting: agonist: 3'3'-cGAMP (STING) 10 ug/mL.
Where [5] appears, read: library stock concentration (final ~1000-fold dilution): 10 mM, cytotoxicity flag (confluency mask): not cytotoxic.

Take `O=C(C=Cn1cnc(-c2cc(C(F)(F)F)cc(C(F)(F)F)c2)n1)N1CC(F)(F)C1` (library stock concentration (final ~1000-fold dilution): 10 mM): the entries for the “IRF Lucia reporter activity” value in the experiment on RAW-Dual [1] (setting [4]) and in the experiment on RAW-Dual [1] (agonist: LPS (TLR4) 0.1 ug/mL) were 0.1 and 0.213, respectively.

For `O=C(C=Cn1cnc(-c2cc(C(F)(F)F)cc(C(F)(F)F)c2)n1)N1CC(F)(F)C1`, the “IRF Lucia reporter activity” value with RAW-Dual [2] (setting [5]) was 0.182.

Regarding `CCn1c(=O)c(-c2ccc(-c3cncs3)cc2Cl)cc2cnc(Nc3ccc(N4CCN(C)CC4)cc3)nc21` (library stock concentration (final ~1000-fold dilution): 10 mM), the figures for the “IRF Lucia reporter activity” value with RAW-Dual [1] (setting [4]) and in the experiment with RAW-Dual [1] (agonist: LPS (TLR4) 0.1 ug/mL) were 0.511 and 0.274, respectively.

With `CCn1c(=O)c(-c2ccc(-c3cncs3)cc2Cl)cc2cnc(Nc3ccc(N4CCN(C)CC4)cc3)nc21`, in the experiment with RAW-Dual [2] (setting [5]), the “IRF Lucia reporter activity” value came out at 0.671.

Consider `CCN(CC)C(=O)N1CCN(C)CC1.O=C(O)CC(O)(CC(=O)O)C(=O)O` (library stock concentration (final ~1000-fold dilution): 10 mM), for which the figures for the “IRF Lucia reporter activity” value in the experiment on RAW-Dual [1] (setting [4]) and in the experiment with RAW-Dual [1] (agonist: LPS (TLR4) 0.1 ug/mL) were 1.03 and 1.26, respectively.

Turning to `CCN(CC)C(=O)N1CCN(C)CC1.O=C(O)CC(O)(CC(=O)O)C(=O)O`, the “IRF Lucia reporter activity” value in the experiment on RAW-Dual [2] (setting [5]) is 1.09.

With `Nc1ccn(C2CCC(CO)O2)c(=O)n1` (centres undefined) (library stock concentration (final ~1000-fold dilution): 10 mM), the “IRF Lucia reporter activity” value was determined as 1.03 with RAW-Dual [1] (setting [4]) and 1.01 in the experiment on RAW-Dual [1] (agonist: LPS (TLR4) 0.1 ug/mL).

With `Nc1ccn(C2CCC(CO)O2)c(=O)n1` (centres undefined), the “IRF Lucia reporter activity” value in the experiment with RAW-Dual [2] (setting [5]) came out at 0.878.

`CCCc1nc(C(C)(C)O)c(C(=O)OCc2oc(=O)oc2C)n1Cc1ccc(-c2ccccc2-c2nn[nH]n2)cc1`: in the experiment with RAW-Dual [2] (setting [5]), the “IRF Lucia reporter activity” value turned out to be 1.01.

As to `CCCc1nc(C(C)(C)O)c(C(=O)OCc2oc(=O)oc2C)n1Cc1ccc(-c2ccccc2-c2nn[nH]n2)cc1` (library stock concentration (final ~1000-fold dilution): 10 mM), the “IRF Lucia reporter activity” value in the experiment with RAW-Dual [1] (setting [4]) stood at 1.06; in the experiment on RAW-Dual [1] (agonist: LPS (TLR4) 0.1 ug/mL) it was 0.909.

As to `O=C1/C(=C/c2cccs2)CC/C1=C\c1cccs1`, the “IRF Lucia reporter activity” value in the experiment with RAW-Dual [2] (library stock concentration (final ~1000-fold dilution): 2 mM, cytotoxicity flag (confluency mask): not cytotoxic) was determined as 1.19.

Turning to `O=C1/C(=C/c2cccs2)CC/C1=C\c1cccs1` (library stock concentration (final ~1000-fold dilution): 2 mM), the “IRF Lucia reporter activity” value in the experiment with RAW-Dual [1] (setting [4]) turned out to be 0.868; with RAW-Dual [1] (agonist: LPS (TLR4) 0.1 ug/mL), 0.91.

For the compound `CC1(C)OC(=O)C=CC2(C)C1CC(=O)C1(C)C2CCC2(C)C(c3ccoc3)OC(=O)C3OC321` (centres undefined), in the experiment with RAW-Dual [2] (setting [5]), the “IRF Lucia reporter activity” value came out at 1.04.

In the case of `CC1(C)OC(=O)C=CC2(C)C1CC(=O)C1(C)C2CCC2(C)C(c3ccoc3)OC(=O)C3OC321` (centres undefined) (library stock concentration (final ~1000-fold dilution): 10 mM), the “IRF Lucia reporter activity” value with RAW-Dual [1] (setting [4]) is 0.757; in the experiment on RAW-Dual [1] (agonist: LPS (TLR4) 0.1 ug/mL) it was 1.07.

In the case of `O=C(Nc1cc(C(F)(F)F)cc(C(F)(F)F)c1)c1cc(Cl)ccc1O` (library stock concentration (final ~1000-fold dilution): 10 mM), the “IRF Lucia reporter activity” value with RAW-Dual [3] (setting [4]) is 0.03 and 0.0207; in the experiment with RAW-Dual [3] (agonist: LPS (TLR4) 0.1 ug/mL), 3.59 and 3.92.

For `O=C(Nc1cc(C(F)(F)F)cc(C(F)(F)F)c1)c1cc(Cl)ccc1O`, the “IRF Lucia reporter activity” value in the experiment on RAW-Dual [2] (library stock concentration (final ~1000-fold dilution): 10 mM, cytotoxicity flag (confluency mask): cytotoxic (confluency <70% of control)) was found to be 3.54 ± 1.7.
